Data set [1] has as its target T1, Trastuzumab (Homo sapiens, UniProt P01857, D239E/L241M).
T1 construct: purchased Syd Labs Inc; MedChemExpress LLC; Bio X Cell
Description: Bioconjugation handle / GLP1 transfer to trastuzumab, analyzed by Q-ToF LC-MS. Format: biochemical. To be noted: for Modifications incorporated into the heavy chain of Tmab: hIgG1 trastuzumab (1 eq.), peptide 20 eq., after 24 h. Here is the method:
The conversion rate for each reaction was calculated by one of the following methods. Determination by LC-MS: Reported yields based on LC-MS spectra were determined by extracting the total ion current (TIC) spectra of all protein-containing species in the chromatogram utilizing Agilent MassHunter 6.0 software with BioConfirm package. These extracted chromatograms were deconvoluted utilizing a maximum entropy algorithm and abundance of each species determined using total ion count.
A reaction solution corresponding to 9.0 μg of IgG was taken into a PCR tube and diluted with Tris buffer (100 mM, pH 8.1) to a final volume of 6 μL. […] Afterward, DTT (200 mM in water, 2 μL) was added, and the mixture was further incubated at 37° C. for 1 hour. Finally, the solution was diluted to a volume of 40 μL with a mixture of water and acetonitrile (95:5), and 8 μL of the diluted solution was injected into LC-MS.
Reactions were performed on a 20 μL scale using 0.2 mL PCR tubes (FIG. 61). First, the electrophile-attached Z33 peptide reagent was dissolved in water to prepare a 2 mg/mL solution. Trastuzumab (MedChemExpress LLC. or Bio X Cell), electrophile-attached Z33 peptide reagent (2 mg/mL), and buffer were added to achieve final concentrations of 10 μM, 200 μM, and values listed in the following table, respectively. If the HEPES was used as a buffer, NaCl solution (4M, 1 uL) was added to the reaction mixture. […] The resulting reaction solution was quenched with a 100 mM glycine buffer of 100 mM Tris buffer and analyzed by LC-MS. Sample preparation for LC-MS analysis was performed in the same manner previously described. […] Therefore, a post-processing step was implemented to remove electrophiles using an Amicon® filter. The reaction mixture was diluted to 200 μL with citrate buffer (100 mM, pH 2.7) and filtered through an Amicon® filter (0.5 mL, 50KMWCO) at 14000 rcf for 7 minutes. After filtration, 400 μL of Tris buffer (100 mM, pH 8.1) was added and centrifuged again. Finally, the remaining solution (roughly 20 μL) on the Amicon® filter was transferred to a microcentrifuge tube, and the Amicon® filter was washed twice with 10 μL of Tris buffer (100 mM, pH 8.1). LC-MS results of electrophile-attached Z33E20C/Hcy reagents are shown in FIG. 51 to FIG. 52E and in Table 7. Unless otherwise provided, “E^20C” refers to that the residue of the 20th amino acid of Z33 (which is an E) is replaced with a substituted or unsubstituted residue of cysteine. Unless otherwise provided, “E20Hcy” refers to that the residue of the 20th amino acid of Z33 (which is an E) is replaced with a substituted or unsubstituted residue of homocysteine (“Hcy”).
The reaction was performed on a 2.1 mL scale using a 1.5 mL microcentrifuge tube. […] The reaction mixture was diluted to 4 mL with citrate buffer (100 mM, pH 2.7) and filtered through an Amicon® filter (4 mL, 50KMWCO) at 3220 rcf for 10 minutes. After filtration, 2 mL of citrate buffer (100 mM, pH 2.7) was added and centrifuged twice, followed by centrifugation with 2 mL of Tris buffer (50 mM, pH 8.0) three times (total of 6 centrifugations). The remaining solution on the Amicon® filter was transferred to a microcentrifuge tube, and the Amicon® filter was washed twice with 40 μL of Tris buffer (100 mM, pH 8.1).
Reactions were performed on a 20 μL scale using 0.2 mL PCR tubes (FIG. 61). First, the electrophile-attached Z33 peptide reagent was dissolved in water to prepare a 2 mg/mL solution. Trastuzumab (Bio X Cell), electrophile-attached Z33 peptide reagent (2 mg/mL), HEPES buffer (pH 8.5), and NaCl solution were added to achieve final concentrations of 10 uM, 200 μM, 100 mM, and 200 mM. […] The resulting reaction solution was quenched with a 100 mM Tris buffer and analyzed by LC-MS (FIG. 53, Table 8).

Data set [2] relates to mouse IgG. Description: Azido transfer to mouse IgG in mouse serum (E1/E2 sandwich ELISA). Format: biochemical. To be noted: after 2 h of incubation in mouse sera. Background: An ELISA detects its analyte on a solid surface through an enzyme-linked reagent.
Data set [3] deals with mouse IgG. Description: Azido transfer to mouse IgG in vivo (E1/E2 ELISA of serum). To be noted: subcutaneous injection of 30 mg/kg, WT Swiss mice, serum at 24 h, listed as N3-3-I. Here is the method:
To evaluate the in vivo azido transfer in mice, two groups of mice were injected subcutaneously or intraperitoneally with the IgG-binder peptides. Mice were sacrificed at 24 hours post-injection, and the blood was collected for ELISA analysis. Sandwich ELISA assays. […] The percentage azido transfer was also compared with intraperitoneal injection of 10 mg/kg Z33-E20Hcy, intraperitoneal injection of 30 mg/kg of Z33-E20Hcy, subcutaneous injection of 30 mg/kg Z33-E20Hcy, and intraperitoneal injection of 30 mg/kg pegylated-Z33-E20Hcy (FIG. 2D).
Two sandwich ELISA assays have been developed in-house, one for the detection of the azido moiety conjugated mouse IgG (mIgG, E1), the other one for the detection of the whole mIgGs (modified and unmodified) in the sample (E2). Both E1 and E2 were run simultaneously on a same plate, using the same initial stock sample, and were processed in parallel at the same time for every steps. […] Absorbances were measured at 450 nm and 540 nm (A0=A450 nm-A540 nm) using a Spark microplate reader (Tecan, USA). The background noise (Ablank) from the serum was subtracted to get the final absorbance of the sample (Asample=A0-Ablank). The ratio Asample (E1)/Asample (E2) was calculated to estimate the percentage of azido transfer on the total amount of IgG in the sample. […]

Data set [4] concerns the target T1, Trastuzumab. Description: Bioconjugation handle / GLP1 transfer to trastuzumab, analyzed by Q-ToF LC-MS. Format: biochemical. As to conditions: 10 equivalents.
The target of data set [5] is T1, Trastuzumab. The data set can be described thus: ADC preparation with MMAE transfer reagent (SDS-PAGE). Format: biochemical. To be noted: MMAE transfer to Tmab in vitro. Here is the method: Reactions were performed on a 20 μL scale using 0.2 mL PCR tubes. […] The final concentrations of HEPES buffer (pH 8.5), NaCl solution, and PBS buffer were 100 mM, 200 mM and 1×, respectively. Tmab (Bio X Cell, 9.2 mg/mL, 1.61 μL) was then added to the reaction solution and incubated at room temperature or 37° C. for hours. The resulting reaction solution was quenched with 100 mM Tris buffer and analyzed by SDS-PAGE.
The reaction mixture corresponding to 3.5 μg of IgG was taken to a PCR tube, and diluted with Tris buffer (100 mM, pH 8.1) to a final volume of 3 μL. Then, Laemmli sample buffer (BIO-RAD, 2×+5% 2-mercaptoethanol, 3 μL) was added, and the mixture was heated at 70° C. for 5 min. After returning the reaction solution to room temperature, 2 μL was loaded onto an SDS-Gel. Subsequently, electrophoresis, washing, staining, and analysis were performed using the methods described in General Information Section.

The subject of another data set is db/db mice. As to conditions: cited from earlier work.
For data set [6] the following is noted: humans, cited from earlier work.
Setting [7] is: 100 mM HEPES pH 8.5, room temperature, 24 h.

As to “H2N-PEG8- FNMQQQRRFYEALHD PNLNHcyEQRNAKIKSI RDD [PEL-30]”, the “Heavy chain total conversion ratio (+1/+2)” value is recorded as 95/5 at Trastuzumab [1] (10 equivalents, 100 mM HEPES pH 8.5, room temperature, 24 h) and 95/5 at Trastuzumab [1] (10 equivalents, PBS, 37, 24 h). Also, the “Light chain total conversion” value on Trastuzumab [1] (10 equivalents, PBS, 37, 24 h) worked out at 4%; on Trastuzumab [4] (setting [7]), 5%. The same substance came in with a Conversion on Trastuzumab [1] (trastuzumab, peptides bearing electrophile I (Table 17)) of 95%. In the data set on mouse IgG [2], the “IgG conversion rate in mouse sera” value is 49±3%. Further, the “Azido transfer to mouse IgG in vivo (conversion rate)” value in the data set on mouse IgG [3] was 37±4%. Further, the “Heavy chain total conversion” value at Trastuzumab [4] (setting [7]) was 95%; at Trastuzumab [4] (PBS, 37, 24 h) it was 86%.

As to MMAE, at Trastuzumab [5], the “Heavy chains of the Fc domain of Tmab modified” value is recorded as “up to 55%” and the Selectivity came out at 99%.

The substance “5-azido-pentanoyl- FNMQQQRRFYEALHD PNLNHcyEQRNAKIKSI RDD [PEL-09]” displayed a Conversion rate with Trastuzumab [1] (trastuzumab, LC-MS analysis) of 97%.

AMG-133: the “Persistence of body-weight loss” value in the data set with db/db mice (post IP injection of 2 mg/kg) was “up to 216 h”. For the same substance, the “Duration of blood glucose reduction” value with db/db mice (post injection) is on record as “up to 144 h”. Besides, the Peak of duration in data set [6] (post SC injection) was 4 to 7 days. In data set [6], the “Body weight loss maintained after the last dose” value is “up to 120 days” and the Half-life is 14 to 16 days.

“FNMQQQRRFYEALHD PNLNHcyEQRNAKIKSI RDD [PEL-18]”: the “Modifications incorporated into the heavy chain of Tmab” value with Trastuzumab [1] (listed as electrophile II) amounted to 47%.

With “FNMQQQRRFYEALHD PNLNHcyEQRNAKIKSI RDD [PEL-20]”, on Trastuzumab [1] (listed as electrophile III), the “Modifications incorporated into the heavy chain of Tmab” value was 47%.

In the case of “FNMQQQRRFYEALHD PNLNHcyEQRNAKIKSI RDD [PEL-22]”, the Conversion rate at Trastuzumab [1] (trastuzumab, 37° C., reagent added in two portions (at 0 and 4 hours)) is recorded as 93%.

As to “FNMQQQRRFYEALHD PNLNHcyEQRNAKIKSI RDD [PEL-32]”, the “Light chain total conversion” value at Trastuzumab [1] (10 + 10 equivalents (at the beginning and after 4 hours), 100 mM HEPES pH 8.7, 37, 24 h) is recorded as under 1%.

Source of the values: US20250127918A1, “SITE-SELECTIVE CONJUGATION OF A PHARMACEUTICAL AGENT TO AN ANTIBODY USING AN AFFINITY PEPTIDE” (priority 2023, published 2025).
